According to PubChem BioAssay AID504832 (National Center for Advancing Translational Sciences (NCATS), 2011):
Out of some 310,000 compounds screened, about 18,000 (5.8%) were called active. Inconclusive results, whose numbers are uncertain, are shown with a selection of clear calls. Calls follow the shape of the dose curve; as a rule, active = well fitted inhibition curve with a large enough effect; inconclusive = small, poorly fitted or top-dose-only effect, or another doubt; inactive = no such curve, though single readings can be large or run the other way. No potency is given beside an inconclusive call; the fits are too rough.

Assay: Primary qHTS for delayed death inhibitors of the malarial parasite plastid, 48 hour incubation
Conditions: P. falciparum luciferase growth in erythrocytes; series mostly up to 28.7 µM; activity change, negative = inhibition: at the top concentration
Outline: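 Growth was read as firefly luciferase luminescence after a 48 h, 37 C, 5% CO2 exposure of compounds to reporter-bearing P. falciparum cultures (0.1% parasitemia, 2% hematocrit final) in Albumax-supplemented RPMI 1640.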
% is scaled to controls: 0 for no effect and ±100 for the full control effect; potency is read from the fitted curve at half-maximal effect; tags tell the direction and shape of the fitted curve.

Row | Structure (SMILES) | Potency | activity change, negative = inhibition
1 | Cc1ccnc(NC(=O)CCC(=O)N(CC(=O)NC2CCCCC2)Cc2cccs2)c1 | inconclusive [inhibitor, single point] | –
2 | CCOc1ccc(/C=N/Nc2nncc(-c3ccccc3)n2)cc1OC | inconclusive [inhibitor, partial curve] | –
3 | O=C1CCCc2cc3c(cc21)CC1(C3)Cc2cc3c(cc2C1)C(=O)CCC3 | active: 5.22 µM | –
4 | CCc1ccc(NC(=O)[C@@H](NC(=O)[C@@H]2Cc3ccccc3CN2)C(C)CC)cc1 (some centres not stated) | active: 7.38 µM | –
5 | CCc1ccc(NC(=O)NCc2ccc3c(c2)OCO3)cc1 | – | inactive: 34.3%
6 | O=C(COC(=O)C1CCN(c2ccc(C(F)(F)F)cn2)CC1)c1ccc(Cl)cc1 | – | inactive: 5.4%
7 | CC(=O)N1c2ccc(S(=O)(=O)NCCC(=O)N(C)C3CCCCC3)cc2CC1C (configuration not stated) | inconclusive [inhibitor, single point] | –
8 | CC(=O)c1ccc(Nc2cc(C)nc3ccccc23)cc1 | inconclusive [inhibitor, partial curve, poor fit] | –
9 | COc1ccc(-c2[nH]ncc2CN2CCCOc3c(cccc3OC)C2)c(OC)c1 | – | inactive: -4.05%
10 | Oc1cccc(-c2nc3c4c(ncn3n2)-c2ccccc2CC42CCCC2)c1 | active: 11.7 µM | –
11 | COC(=O)CC1C(=O)NCCN1Cc1cn(-c2ccc(C)cc2)nc1-c1cccc(C)c1 (configuration not stated) | inconclusive [inhibitor, single point] | –
12 | COCCCNC(=S)NCCNc1nc2c(C)c(C)ccc2cc1C#N | inconclusive [inhibitor, partial curve, poor fit] | –
13 | O=C(NCCc1cn2ccccc2n1)c1ccccc1F | – | inactive: 44.9%
14 | CCC(=Nc1ccc(N)cc1)C1=C(O)C(C(=O)OC)C(C)(C)CC1=O (configuration not stated) | inconclusive [inhibitor, single point] | –
15 | COc1cc(CNCc2c[nH]c3ccccc23)cc(OC)c1 | inconclusive [inhibitor, single point] | –
16 | CCOc1ccc(-n2c(C)c(C(C)=O)c(C(C)=O)c2C)cc1 | – | inactive: -8.51%
17 | O=C1c2cccc(OCC(=O)N3CCCc4ccccc43)c2CCN1Cc1ccccc1 | inconclusive [inhibitor, partial curve] | –
18 | C=CCN(C(=O)CSc1nc2c(sc3ccccc32)c(=O)n1CCN(CC)CC)c1ccccc1 | inconclusive [inhibitor, partial curve, poor fit] | –
19 | COc1ccccc1CC(=O)Nc1ccon1 | – | inactive: 1.57%
20 | CC(=O)Nc1c(O)nc(SCC(=O)Nc2nnc(SCc3ccccc3)s2)[nH]c1=O | – | inactive: 41.7%
21 | CC(=O)Nc1cccc(NC(=O)CSc2nc(=O)n(CCN3CCOCC3)c3c2CCC3)c1 | – | inactive: -6.32%
22 | CCOC(=O)c1cc(-c2ccccc2)n(CCC(=O)N2CCN(c3ccccc3OC)CC2)c1C | active: 9.28 µM | –
23 | COc1ccc(N2CCCn3c2nc2c3c(=O)n(Cc3ccc(C)cc3)c(=O)n2C)c(OC)c1 | active: 9.28 µM | –
24 | NC1=NC[C@H](Cc2ccc(O)cc2)N1CCc1cccc(F)c1 | active: 13.1 µM | –

Row | Structure (SMILES) | Potency | activity change, negative = inhibition
25 | CCN1CCC[C@H]1CNC(=O)c1cc(S(N)(=O)=O)ccc1OC | – | inactive: 2.42%
26 | CC1=N/C(=C\c2ccc([N+](=O)[O-])cc2)C(=O)N1c1cc(Cl)ccc1C | inconclusive [inhibitor, single point] | –
27 | COC(=O)Cc1ccc(NC(=S)NCCSc2ccc(Cl)cc2)cc1 | – | inactive: -11.9%
28 | CCc1nc(N2CCN(C(=O)c3ccccc3)CC2)c2c3c(sc2n1)CCCC3 | inconclusive [inhibitor, partial curve, poor fit] | –
29 | N#Cc1ccc(CSc2nnc(-c3cccc(S(=O)(=O)N4CCCCC4)c3)o2)cc1 | active: 13.1 µM | –
30 | CC[N+]1(CC(O)COC2CC(C)CC(C)(C)C2)CCOCC1 (configuration not stated) | inconclusive [inhibitor, partial curve] | –
31 | CCOC(=O)C1(Cc2ccccc2C)CCCN(Cc2ccc(NC(C)=O)cc2)C1 (configuration not stated) | active: 5.22 µM | –
32 | COc1ccc(CN2C(=O)C(CC(C)C)Nc3ncnc(N4CCOCC4)c32)cc1 (configuration not stated) | inconclusive [inhibitor, single point] | –
33 | CS(=O)(=O)c1ccc(N2CCN(c3ccccn3)CC2)c([N+](=O)[O-])c1 | – | inactive: -20.8%
34 | CC(C(=O)Nc1ccc(F)c(F)c1F)N(C)CCOc1ccccc1 (configuration not stated) | – | inactive: 9.62%
35 | CCC(CCC(=O)Nc1ccc(S(N)(=O)=O)cc1)C(=O)O (configuration not stated) | – | inactive: 17.9%
36 | COc1ccccc1Nc1nc(N)nc(CSC(=S)N2CCCCC2C)n1 (configuration not stated) | inconclusive [inhibitor, partial curve] | –
37 | CCc1ccccc1NC(=O)C1CCCN(S(=O)(=O)c2ccc3c(c2)CC(C)N3C(C)=O)C1 (configuration not stated) | inconclusive [inhibitor, full curve] | –
38 | Cc1ccc([N+](=O)[O-])c(OCCN2CCNCC2)c1 | – | inactive: 14.8%
39 | Cc1cccc(NC(=O)CSCC(=O)Nc2ccccc2N2CCCC2)c1 | – | inactive: -11.9%
40 | CCC(C)Nc1nc(N)c([N+](=O)[O-])c(NC2CCCCC2)n1 (configuration not stated) | inconclusive [inhibitor, single point] | –
41 | Cc1ncc(CN2CCCC(C(=O)c3ccc(C(C)(C)C)cc3)C2)s1 (configuration not stated) | inconclusive [inhibitor, partial curve] | –
42 | CCN1CCN(S(=O)(=O)Cc2ccccc2Cl)CC1 | – | inactive: 10.5%
43 | Cc1ccc2[nH]c(=O)c(CN(Cc3ccccc3)Cc3nnnn3C3CCCC3)cc2c1 | inconclusive [inhibitor, single point] | –
44 | CC(C)N1CCC(N2CCN(Cc3ccc(-c4ccc(Cl)cc4)o3)CC2CCO)CC1 (configuration not stated) | active: 2.33 µM | –
45 | COc1ccc(OC)c(C2C3=C(CC(C)(C)CC3=O)Nc3nnnn32)c1 (configuration not stated) | inconclusive [inhibitor, partial curve, poor fit] | –
46 | O=C1CCCN1c1ccc(S(=O)(=O)N2CCCCC2)cc1 | inconclusive [inhibitor, partial curve, poor fit] | –
47 | CCCCN(c1ccccc1)c1ncnc2nc[nH]c12 | inconclusive [inhibitor, partial curve, poor fit] | –
48 | O=C(CCS(=O)(=O)c1ccc(Cl)cc1)OCC(=O)N1CCCCC1 | – | inactive: 3.34%

Row | Structure (SMILES) | Potency | activity change, negative = inhibition
49 | CCOc1cc(/C=N/NC(N)=S)cc(Br)c1OCc1ccccc1C | active: 13.1 µM | –
50 | COc1ccc(C2/C=C\CN(S(=O)(=O)c3cccs3)CC(=O)N2Cc2ccc(F)cc2)cc1 (configuration not stated) | inconclusive [inhibitor, partial curve] | –
51 | CC1CCCN(C(=O)c2ccc3c(c2)OCCO3)C1 (configuration not stated) | inconclusive [inhibitor, single point] | –
52 | Nc1cc(N)nc(SCC(=O)NC(=O)NC2CCCC2)n1 | – | inactive: 0.556%
53 | OC(Cc1cccnc1)(Cc1cccnc1)c1cc2ccccc2[nH]1 | – | inactive: -5.09%
54 | COc1ccc(CNC(=O)CN2CCN(c3ccc(F)cc3)CC2)cc1 | – | inactive: 17.9%
55 | CN(C)S(=O)(=O)c1ccc(NC(=O)CN2CCc3ccccc32)cc1 | inconclusive [inhibitor, partial curve, poor fit] | –
56 | CSc1nncc(-c2ccc(F)cc2)n1 | inconclusive [inhibitor, full curve, poor fit] | –
57 | CNC(=O)CSc1nc2nn(-c3ccccc3)c(=O)c-2c2n1CCCCC2 | inconclusive [inhibitor, partial curve] | –
58 | COc1ccc(C(=O)Nc2cc3c4c(c2)C(C)C(=O)N4CCC3)c(OC)c1 (configuration not stated) | inconclusive [inhibitor, single point] | –
59 | O=C(NC(=S)NC1CCS(=O)(=O)C1)c1cccs1 (configuration not stated) | – | inactive: 2.26%
60 | CC1(C)Cc2c(sc(NC(=O)COc3ccc(Cl)cc3)c2C(N)=O)C(C)(C)N1 | inconclusive [inhibitor, single point] | –
61 | CCOC(=O)C1(Cc2ccc(Cl)cc2)CCN(C(C)CCn2cccn2)CC1 (configuration not stated) | inconclusive [inhibitor, single point] | –
62 | O=C(OCC#Cc1c(COC(=O)c2ccccc2)nnn1Cc1ccccc1)c1ccccc1 | inconclusive [inhibitor, single point] | –
63 | CCOc1cc(Br)ccc1S(=O)(=O)N1CC(C)OC(C)C1 (configuration not stated) | inconclusive [inhibitor, single point] | –
64 | CCOc1cc([N+](=O)[O-])c2nc(N)sc2c1 | – | inactive: 19.6%
65 | CCC(C)NS(=O)(=O)c1ccc(NC(=O)C(Sc2ccccc2)c2ccccc2)cc1 (configuration not stated) | inconclusive [inhibitor, single point] | –
66 | CC(C)c1cc(=O)[nH]c(SCC(=O)NC2CCCC2)n1 | inconclusive [inhibitor, partial curve] | –
67 | Nc1c(C(=O)CSc2nnc(Cc3ccccc3)o2)c(=O)[nH]c(=O)n1C1CC1 | inconclusive [inhibitor, partial curve] | –
68 | Cc1cccc(NC(=S)N(CCN(C)C)Cc2cc3cc(C)ccc3[nH]c2=O)c1 | inconclusive [inhibitor, single point] | –
69 | COc1ccc(N(C(=O)c2ccco2)S(=O)(=O)c2cc(OC)ccc2OC)cc1 | inconclusive [inhibitor, single point] | –
70 | O=C(Nc1cccc(S(=O)(=O)N2CCCCC2)c1)c1ccc(S(=O)(=O)C(F)F)cc1 | inconclusive [inhibitor, partial curve, poor fit] | –
71 | OCC[C@H]1C[C@H](O)[C@@H](O)[C@@]2(Cc3ccccc3O2)O1 | inconclusive [inhibitor, partial curve, poor fit] | –
72 | C/C(N)=C(/C#N)C(=O)CSc1nc2scc(-c3ccccc3)c2c(=O)n1C | inconclusive [inhibitor, partial curve, poor fit] | –
